Among all 150,000 compounds or so, about 540 (0.36%) showed an effect of 50% or more. This is one part of the list.
Test system: Plasmodium falciparum
Assay: Primary screen in NF54 nanoGlo assay, in single point, at 2uM, 72h; a lower Z score goes with more inhibition
Type: functional, Erythrocyte
Details: timepoint 72 hour

| Structure (SMILES) | % Inhibition [%] | Z score |
| --- | --- | --- |
| O=C(O)c1ccc(Cn2nnn(C3CC3)c2=O)cc1 | 13 | -1.35 |
| COc1ccc([C@H](C)NC(=O)C2CCN(c3cnc4nccnc4c3)CC2)cc1 | -3 | 0.53 |
| CC1(C)C2OCCC2C1OC(=O)C1CCCN(C(N)=O)C1 (centres undefined) | 20 | -2.52 |
| c1nc2cc(NCc3nc(C4CCCC4)no3)ccc2s1 | -5 | 0.96 |
| Cc1cccc(CN(Cc2cnn(C)c2)Cc2cccc(C)n2)n1 | 5 | -0.64 |
| O=S(=O)(c1ccnc(NC[C@H]2CCCCC2(F)F)c1)N1CCCC1 | -5 | 0.9 |
| COc1ccccc1-c1nc(CN2CCN(c3ncnc(C)c3C)CC2)c(C)o1 | 4 | -0.6 |
| CC(C)n1cc(NC(=O)[C@@H]2CCC(=O)N2C)cn1 | 3 | -0.26 |
| CC1CCC(NC(=O)CN2CC[C@H](O)C23CCCC3)CC1 (some centres undefined) | 3 | -0.5 |
| CCN1CCC[C@@H]1CNS(=O)(=O)c1cc(-c2nc(-c3cccc(Cl)c3)cs2)n(C)c1C | -10 | 1.17 |
| CN(C)C1CCCC1Oc1ncc(Cl)cn1 (centres undefined) | -9 | 1.37 |
| Cc1nc(NC(=O)Cn2nc(-n3ccc4ccccc43)ccc2=O)sc1C | -2 | 0.37 |
| c1ccc(-c2nc(-c3nccn3CCCc3nnn[nH]3)co2)cc1 | 2 | -0.32 |
| COCCn1cc(C(=O)NC2CCCCCCC2)c(=O)c(C(=O)N2C[C@@H](C)O[C@@H](C)C2)c1 | -19 | 2.39 |
| CCN1CCCN(S(=O)(=O)c2ccnn2C(C)C)CC1 | -16 | 1.86 |
| COc1cc(F)ccc1-c1ccc2nc[nH]c2c1 | -11 | 2.01 |
| O=C1N(CCC2CCCCC2)CCC[C@@]1(O)CN1CCc2[nH]ncc2C1 | -8 | 0.93 |
| CC1CCN(C(=O)c2ccc(Br)cc2F)C2CCCCC12 (centres undefined) | -1 | 0.13 |
| Cn1ccc(C(=O)Nc2nc(-c3cccs3)cs2)n1 | -18 | 2.37 |
| CCc1cccc(NC(=O)[C@H](CC(C)C)NC(N)=O)c1 | -6 | 0.59 |
| CC[C@@H](CO)NC(=O)c1cc(C)cc(F)c1 | 29 | -3.9 |
| CN(c1ccc(F)cc1)S(=O)(=O)c1ccc(Cl)c(C(=O)N2CCS(=O)(=O)CC2)c1 | 10 | -1.62 |
| COc1c(CNC(=O)[C@@H]2CCc3cccc(O)c32)oc2ccccc12 | -7 | 0.78 |
| COc1ccc2[nH]c3c(c2c1)CCN(C(=O)c1ccc(C(F)(F)F)c(F)c1)[C@@H]3c1cc(F)c(F)cc1F | -5 | 0.54 |
| Cn1ccc(NS(=O)(=O)c2ccc3c(c2)S(=O)(=O)NC=N3)n1 | -15 | 2.04 |
| C[C@]1(C(=O)Nc2nnc(C3CC3)s2)CC1(Cl)Cl | 0 | -0.04 |

| Structure (SMILES) | % Inhibition [%] | Z score |
| --- | --- | --- |
| COC(=O)[C@H](C)N(Cc1ncnn1C)C1CCC1 | -18 | 2.06 |
| CO[C@](C)(C(=O)NCc1nc(CO)cs1)C1CC1 | -7 | 0.95 |
| Oc1cc(Cn2cc(COCc3ccccc3)nn2)ncn1 | 0 | 0.02 |
| CCOC(=O)c1sc2nc(-c3ccc(OC(C)C)cc3)c(NC3CCCC3)n2c1C | -10 | 1.19 |
| COc1ccc(C(=O)Nc2sc3c(c2C)CCCC3)nn1 | 9 | -1.53 |
| C[C@H](O)CC(C)(C)CNC(=O)NCc1cccc(C(F)(F)F)c1 | -6 | 0.9 |
| Cc1noc(-c2cccn3c(CNC(=O)c4c(C)noc4C)nnc23)n1 | -12 | 1.53 |
| COc1ccc(-n2cc([C@H](C)Nc3nnc(C4CC4)o3)cn2)cc1 | -6 | 1 |
| O=C(Nc1cccnc1)N1CC[C@@H](C(F)(F)F)C2(CCOCC2)C1 | -15 | 1.54 |
| CCN(CC)CCCC(C)NC(=O)CC(c1ccc(Cl)cc1)c1cn(Cc2ccc(C)cc2)c2ccccc12 (centres undefined) | 12 | -1.18 |
| CC(C)(C)OC(=O)N1CCCCC[C@H]1c1noc(-c2cnccn2)n1 | 9 | -1 |
| CCN1C(=O)Cc2cc(NC(=O)Nc3ccc4c(c3)OCO4)ccc21 | 3 | -0.39 |
| CC1(C)Cc2nc(N3CCC(O)CC3)ncc2[C@@H](Nc2cc(C3CC3)ncn2)C1 | 7 | -1.25 |
| O=C(Cc1cccs1)NC[C@]1(O)CCOc2ccccc21 | 4 | -0.54 |
| O[C@H]1CCCN(CCCNc2cc(-c3ccccc3F)nc3ccnn23)C1 | -6 | 0.59 |
| COc1ccc(-c2cnc3ncnn3c2N2CCN(Cc3c(C)cc(C)cc3C)CC2)cc1OC | -10 | 1.43 |
| COc1cc(NC(=O)N2CCOC[C@@H]2CC(C)C)cc(Cl)c1OC | 16 | -2.02 |
| O=C(NCc1ccc(Cl)cc1)c1ccc(Cl)c(-n2cnc3cccnc32)c1 | 1 | -0.17 |
| CS(=O)(=O)c1ccc(Cl)c(C(=O)N2CCc3cc(S(=O)(=O)N4CCCCC4)ccc32)c1 | -13 | 2.52 |
| Cc1ccc(C[C@H](CO)CNC(=O)c2cc3cc(F)ccc3o2)cc1 | -1 | 0.11 |
| Cc1onc(N)c1S(=O)(=O)N1CCN(c2ccccn2)CC1 | 1 | -0.21 |
| CCOCCCNC(N)=NCCc1ccc(OC(F)F)cc1 | -2 | 0.19 |
| Cc1nn(CCCNC(=O)CC(=O)Nc2cccc(Cl)c2C)c(C)c1C | -4 | 0.7 |
| Cc1cc(C)n(-c2ccnc(N3CCN(c4ccccc4F)CC3)n2)n1 | -27 | 2.92 |
| C[C@H](OC(=O)c1ccccc1)C(=O)Nc1ccc(S(=O)(=O)N2CCOCC2)cc1 | -7 | 1.43 |
| C[C@@H](CNC(=O)C1(F)C(F)(F)C(F)(F)C(F)(F)C(F)(F)C1(F)F)NC(=O)C1(F)C(F)(F)C(F)(F)C(F)(F)C(F)(F)C1(F)F | -6 | 0.94 |

Reference: ChEMBL document CHEMBL4888484, “Replenishing the malaria drug discovery pipeline: Screening and hit evaluation of the MMV Hit Generation Library 1 (HGL1) against asexual blood stage Plasmodium falciparum ,using a nano luciferase reporter read-out” (2022)
